In patent publication US20240279325A1 (Chugai, published 2024):

Molecular target: T1, mouse FcRn (mouse, UniProt P01887 21-119, limits assumed)
T1 construct: also called mFcRn
T1 sequence 1: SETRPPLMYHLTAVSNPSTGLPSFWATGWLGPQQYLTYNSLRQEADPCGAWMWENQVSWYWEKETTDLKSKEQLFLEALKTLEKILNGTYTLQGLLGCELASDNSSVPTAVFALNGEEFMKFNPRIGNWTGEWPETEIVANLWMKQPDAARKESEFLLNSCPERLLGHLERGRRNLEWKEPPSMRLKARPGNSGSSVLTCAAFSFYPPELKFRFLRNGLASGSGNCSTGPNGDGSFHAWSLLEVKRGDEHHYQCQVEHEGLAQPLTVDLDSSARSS
T1 sequence 2: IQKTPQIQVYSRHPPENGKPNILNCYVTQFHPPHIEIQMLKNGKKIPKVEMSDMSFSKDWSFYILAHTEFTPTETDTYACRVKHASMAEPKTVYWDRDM
Assay: SPR (Biacore T100), protein L capture, pH 7.0, 25 C

Kd: 85 nM
B1: VH3/L(WT)-F29 (antibody, human IgG1, kappa)
heavy: QVQLQESGPGLVKPSETLSLTCAVSGHSISHDHAWSWVRQPPGEGLEWIGFISYSGITNYNPSLQGRVTISRDNSKNTLYLQMNSLRAEDTAVYYCARSLARTTAMDYWGEGTLVTVSS[gap - human IgG1 constant region with I332V N434Y (EU numbers)]
light: DIQMTQSPSSLSASVGDRVTITCRASQDISSYLNWYQQKPGKAPKLLIYYTSRLHSGVPSRFSGSGSGTDFTFTISSLQPEDIATYYCQQGNTLPYTFGQGTKVEIKRTVAAPSVFIFPPSDEQLKSGTASVVCLLNNFYPREAKVQWKVDNALQSGNSQESVTEQDSKDSTYSLSSTLTLSKADYEKHKVYACEVTHQGLSSPVTKSFNRGEC
notes: copies: 2 + 2
